The list shows a part of the results. Interaction screen of human proteins with wild-type SARS-CoV-2 proteins by split-DHFR complementation in yeast, 1 µg/mL methotrexate. Value = fitness of the pair (three or more lineages) minus that of the viral protein without a human partner, on a scale set by negative (0) and fused positive (1) controls, mean of up to three cultures; higher = more likely to interact. Active = false discovery rate below 0.05 (one-sided t-test) in at least one culture. Nearly all pairs are not hits, and differences among them are mostly noise (correlation between cultures about 0.3); most hits were seen in one culture only. Human sequences are the Swiss-Prot entries looked up by gene name; the clone may be another isoform. NSP2 values were corrected by the authors for a growth advantage. Listed are human proteins with a hit and a random twelfth of the others.

The labels stand for the following.
B1: PTPRCAP, Q14761 (protein)
chain: MALPCTLGLGMLLALPGALGSGGSAEDSVGSSSVTVVLLLLLLLLLATGLALAWRRLSRDSGGYYHPARLGAALWGRTRRLLWASPPGRWLQARAELGSTDNDLERQEDEQDTDYDHVADGGLQADPGEGEQQCGEASSPEQVPVRAEEARDSDTEGDLVLGSPGPASAGGSAEALLSDLHAFAGSAAWDDSARAAGGQGLHVTAL
B2: RBM4, Q9BWF3 (protein)
chain: MVKLFIGNLPREATEQEIRSLFEQYGKVLECDIIKNYGFVHIEDKTAAEDAIRNLHHYKLHGVNINVEASKNKSKTSTKLHVGNISPTCTNKELRAKFEEYGPVIECDIVKDYAFVHMERAEDAVEAIRGLDNTEFQGKRMHVQLSTSRLRTAPGMGDQSGCYRCGKEGHWSKECPIDRSGRVADLTEQYNEQYGAVRTPYTMSYGDSLYYNNAYGALDAYYKRCRAARSYEAVAAAAASVYNYAEQTLSQLPQVQNTAMASHLTSTSLDPYDRHLLPTSGAAATAAAAAAAAAAVTAASTSYYGRDRSPLRRATAPVPTVGEGYGYGHESELSQASAAARNSLYDMARYEREQYADRARYSAF
B3: SYNGR2, O43760 (protein)
chain: MESGAYGAAKAGGSFDLRRFLTQPQVVARAVCLVFALIVFSCIYGEGYSNAHESKQMYCVFNRNEDACRYGSAIGVLAFLASAFFLVVDAYFPQISNATDRKYLVIGDLLFSALWTFLWFVGFCFLTNQWAVTNPKDVLVGADSVRAAITFSFFSIFSWGVLASLAYQRYKAGVDDFIQNYVDPTPDPNTAYASYPGASVDNYQQPPFTQNAETTEGYQPPPVY
B4: VIT, Q6UXI7 (protein)
chain: MRTVVLTMKASVIEMFLVLLVTGVHSNKETAKKIKRPKFTVPQINCDVKAGKIIDPEFIVKCPAGCQDPKYHVYGTDVYASYSSVCGAAVHSGVLDNSGGKILVRKVAGQSGYKGSYSNGVQSLSLPRWRESFIVLESKPKKGVTYPSALTYSSSKSPAAQAGETTKAYQRPPIPGTTAQPVTLMQLLAVTVAVATPTTLPRPSPSAASTTSIPRPQSVGHRSQEMDLWSTATYTSSQNRPRADPGIQRQDPSGAAFQKPVGADVSLGLVPKEELSTQSLEPVSLGDPNCKIDLSFLIDGSTSIGKRRFRIQKQLLADVAQALDIGPAGPLMGVVQYGDNPATHFNLKTHTNSRDLKTAIEKITQRGGLSNVGRAISFVTKNFFSKANGNRSGAPNVVVVMVDGWPTDKVEEASRLARESGINIFFITIEGAAENEKQYVVEPNFANKAVCRTNGFYSLHVQSWFGLHKTLQPLVKRVCDTDRLACSKTCLNSADIGFVIDGSSSVGTGNFRTVLQFVTNLTKEFEISDTDTRIGAVQYTYEQRLEFGFDKYSSKPDILNAIKRVGYWSGGTSTGAAINFALEQLFKKSKPNKRKLMILITDGRSYDDVRIPAMAAHLKGVITYAIGVAWAAQEELEVIATHPARDHSFFVDEFDNLHQYVPRIIQNICTEFNSQPRN

The target of the first test is SARS-CoV-2 M. As to the kind of experiment: yeast fitness gain over the viral ORF with no human partner (scaled fitness); higher = more likely to interact. As for the experimental part: (§1)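 Split mouse DHFR complementation in pooled diploid yeast: human ORFeome clones carry one fragment and viral ORFs the other; barcoded lineages compete in 1 µg/mL methotrexate and fitness is read by barcode sequencing in up to three cultures.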
For the molecule B1, the yeast fitness gain is inactive: 0.012.

As to B2, the yeast fitness gain is inactive: -0.0522.

For the molecule B3, the yeast fitness gain is inactive: -0.0842.

As for B4, the yeast fitness gain was inactive: -0.0184.

The next test deals with SARS-CoV-2 N. The description is as above. As for the experimental part:
as §1
Consider B1, for which the yeast fitness gain was inactive: 0.00456.

B2: the yeast fitness gain was inactive: -0.228.

As to B3, the yeast fitness gain was inactive: 0.0358.

Take B4: the yeast fitness gain was inactive: 0.092.

A further test has as its target SARS-CoV-2 NSP1. The test is described as above. As for the experimental part:
as §1
As for B1, the yeast fitness gain was inactive: -0.0236.

Regarding B2, the yeast fitness gain was inactive: -0.0722.

Turning to B3, the yeast fitness gain is inactive: -0.0595.

For B4, the yeast fitness gain was inactive: -0.0202.

Another test concerns the target SARS-CoV-2 NSP10. Described as above. As for the experimental part:
as §1
In the case of B1, the yeast fitness gain was inactive: 0.00698.

As to B2, the yeast fitness gain was inactive: -0.208.

With B3, the yeast fitness gain was inactive: -0.0434.

For B4, the yeast fitness gain is inactive: 0.0551.

In another test the target is SARS-CoV-2 NSP12. The test is described as above. As for the experimental part:
as §1
Regarding B1, the yeast fitness gain was inactive: 0.0927.

As to B2, the yeast fitness gain was inactive: 0.0405.

Take B3: the yeast fitness gain was inactive: 0.0698.

For the molecule B4, the yeast fitness gain is inactive: -0.00982.

The next test deals with SARS-CoV-2 NSP13. The test is described as above. As to the method: as §1
With B1, the yeast fitness gain was inactive: 0.0234.

Take B2: the yeast fitness gain was inactive: 0.0349.

As to B3, the yeast fitness gain was inactive: 0.00557.

Take B4: the yeast fitness gain was inactive: 0.0126.

Another test addresses SARS-CoV-2 NSP14. Described as above. As to the method:
as §1
As for B1, the yeast fitness gain is inactive: 0.0358.

Turning to B2, the yeast fitness gain is inactive: -0.205.

For a further test, the target named is SARS-CoV-2 NSP2. The test is described as above. As to the method: as §1
Take B1: the yeast fitness gain was inactive: -0.0373.

Turning to B2, the yeast fitness gain is inactive: -0.0908.

B3: the yeast fitness gain is inactive: -0.106.

For the molecule B4, the yeast fitness gain was inactive: -0.156.

The next test deals with SARS-CoV-2 NSP4. The test is described as above. As for the experimental part: as §1
In the case of B1, the yeast fitness gain is inactive: -0.0597.

As for B2, the yeast fitness gain was inactive: 0.0529.

A further test concerns the target SARS-CoV-2 NSP5. Described as above. As for the experimental part:
as §1
On to B1, for which the yeast fitness gain is inactive: 0.00163.

B2: the yeast fitness gain is inactive: -0.000383.

As to B3, the yeast fitness gain is inactive: -0.00173.

For B4, the yeast fitness gain is inactive: 0.0292.

In the next test the target is SARS-CoV-2 NSP6. The test is described as above. As to the method:
as §1
Take B1: the yeast fitness gain is inactive: 0.00834.

Regarding B2, the yeast fitness gain is inactive: -0.0869.

Take B3: the yeast fitness gain is inactive: -0.285.

In the case of B4, the yeast fitness gain was inactive: 0.0653.

Another test has as its target SARS-CoV-2 NSP7. The description is as above. As for the experimental part:
as §1
Turning to B1, the yeast fitness gain was inactive: -0.0266.

Take B2: the yeast fitness gain was inactive: 0.091.

With B3, the yeast fitness gain is inactive: -0.0849.

For B4, the yeast fitness gain was inactive: 0.106.

Another test deals with SARS-CoV-2 NSP8. The test is described as above. As for the experimental part: as §1
As for B1, the yeast fitness gain was inactive: 0.0299.

In the case of B2, the yeast fitness gain is inactive: 0.0696.

In the case of B3, the yeast fitness gain is inactive: -0.109.

As to B4, the yeast fitness gain was inactive: -0.0351.

In the next test the target is SARS-CoV-2 NSP9. Described as above. As to the method: as §1
B1: the yeast fitness gain was inactive: -0.0525.

Take B4: the yeast fitness gain is inactive: -0.0518.

The target of another test is SARS-CoV-2 ORF10. Described as above. As for the experimental part: as §1
As to B1, the yeast fitness gain was inactive: -0.00236.

Consider B2, for which the yeast fitness gain is inactive: 0.11.

B3: the yeast fitness gain is inactive: -0.103.

Another test has as its target SARS-CoV-2 ORF3B. The description is as above. As for the experimental part:
as §1
In the case of B1, the yeast fitness gain is inactive: 0.0568.

Regarding B2, the yeast fitness gain is inactive: -0.0975.

B3: the yeast fitness gain is inactive: -0.0838.

Consider B4, for which the yeast fitness gain was inactive: -0.000915.

The target of a further test is SARS-CoV-2 ORF6. Described as above. As to the method:
as §1
Regarding B1, the yeast fitness gain was inactive: -0.0691.

Take B2: the yeast fitness gain was inactive: 0.00827.

Consider B3, for which the yeast fitness gain is inactive: -0.0236.

Turning to B4, the yeast fitness gain is inactive: 0.0722.

For a further test, the target named is SARS-CoV-2 ORF7A. The description is as above. As to the method:
as §1
Regarding B1, the yeast fitness gain was inactive: 0.016.

As to B2, the yeast fitness gain was inactive: -0.0659.

B3: the yeast fitness gain was inactive: -0.0247.

For the molecule B4, the yeast fitness gain was inactive: 0.0315.

A further test addresses SARS-CoV-2 ORF7B. Described as above. As to the method:
as §1
As to B1, the yeast fitness gain was inactive: -0.00185.

Take B2: the yeast fitness gain was inactive: -0.0471.

As to B3, the yeast fitness gain was inactive: -0.00851.

For B4, the yeast fitness gain is inactive: -0.0619.

The target of another test is SARS-CoV-2 ORF8. The description is as above. As for the experimental part: as §1
With B1, the yeast fitness gain was inactive: -0.0143.

As to B2, the yeast fitness gain was inactive: -0.00136.

For B3, the yeast fitness gain is inactive: 0.0428.

As for B4, the yeast fitness gain was inactive: 0.0236.

The target of a further test is SARS-CoV-2 ORF9B. Described as above. As for the experimental part:
as §1
Turning to B1, the yeast fitness gain was inactive: 0.034.

Take B2: the yeast fitness gain was inactive: -0.00188.

Turning to B3, the yeast fitness gain was inactive: -0.0159.

Turning to B4, the yeast fitness gain was inactive: 0.11.

The target in another test is SARS-CoV-2 S. The test is described as above. As for the experimental part:
as §1
On to B1, for which the yeast fitness gain was inactive: -0.0673.

Turning to B2, the yeast fitness gain was inactive: -0.0737.

B3: the yeast fitness gain is inactive: -0.154.

In the case of B4, the yeast fitness gain is inactive: -0.135.

For a further test, the target named is SARS-CoV-2 NSP15. Described as above. As for the experimental part: as §1
Regarding B2, the yeast fitness gain was inactive: -0.00938.

B3: the yeast fitness gain was inactive: -0.0671.

On to B4, for which the yeast fitness gain is inactive: -0.0821.

In the next test the target is SARS-CoV-2 NSP16. Described as above. As for the experimental part: as §1
Take B2: the yeast fitness gain is inactive: -0.376.

Consider B3, for which the yeast fitness gain is inactive: -0.167.

Regarding B4, the yeast fitness gain is inactive: -0.0628.

The target in another test is SARS-CoV-2 ORF3A. The test is described as above. As for the experimental part:
as §1
Take B2: the yeast fitness gain is inactive: 0.0249.

With B3, the yeast fitness gain was inactive: -0.0045.

As for B4, the yeast fitness gain is inactive: 0.0382.

The next test concerns the target SARS-CoV-2 ORF9Bwu (the 73-codon ORF). The description is as above. As to the method:
as §1
With B2, the yeast fitness gain is inactive: 0.0561.

Regarding B3, the yeast fitness gain is inactive: -0.00541.

Turning to B4, the yeast fitness gain is inactive: 0.0607.
